# From publication PMC5700166
# Only a part is listed here, and it is no random draw. The list includes weakly bound sequences.
# Experiments:
# Test in all cases: protein-binding microarray (PBM)
# Settings in all cases: PBM: ~300 nM protein, 6 mM HEPES pH 7.8, 80 mM KCl, 0.5 mM EDTA, 0.5 mM EGTA, 6% glycerol, 35 ng/ul poly-dIdC, 1% milk, 1 h, room temperature; Ap Aiptasia and Nv Nematostella (sea anemones) / Co Capsaspora / Aq Amphimedon (sponge) / Dm Drosophila / Hu human; RHD is the Rel homology domain; high values mean tight binding; most listed sequences are background and not binding sites; double strand, one strand shown
# GST-Ap-NF-kB RHD = target: T1, GST-Ap-NF-kB RHD (UniProt A0A913YAJ5)
# T1 sequence: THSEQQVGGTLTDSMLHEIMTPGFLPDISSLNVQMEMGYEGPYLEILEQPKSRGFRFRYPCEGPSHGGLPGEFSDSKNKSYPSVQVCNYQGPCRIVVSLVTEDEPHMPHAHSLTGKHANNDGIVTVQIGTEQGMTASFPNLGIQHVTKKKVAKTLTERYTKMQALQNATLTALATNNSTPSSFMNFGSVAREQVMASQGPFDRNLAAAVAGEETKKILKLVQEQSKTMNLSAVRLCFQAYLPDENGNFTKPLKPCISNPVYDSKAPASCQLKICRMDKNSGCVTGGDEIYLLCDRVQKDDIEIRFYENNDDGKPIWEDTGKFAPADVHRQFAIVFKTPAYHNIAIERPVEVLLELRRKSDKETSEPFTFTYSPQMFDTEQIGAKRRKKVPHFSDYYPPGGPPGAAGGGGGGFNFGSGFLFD
# [1] = target: T2, GST-Nv-NF-kB (Cys allele) (UniProt E5G601)
# T2 sequence: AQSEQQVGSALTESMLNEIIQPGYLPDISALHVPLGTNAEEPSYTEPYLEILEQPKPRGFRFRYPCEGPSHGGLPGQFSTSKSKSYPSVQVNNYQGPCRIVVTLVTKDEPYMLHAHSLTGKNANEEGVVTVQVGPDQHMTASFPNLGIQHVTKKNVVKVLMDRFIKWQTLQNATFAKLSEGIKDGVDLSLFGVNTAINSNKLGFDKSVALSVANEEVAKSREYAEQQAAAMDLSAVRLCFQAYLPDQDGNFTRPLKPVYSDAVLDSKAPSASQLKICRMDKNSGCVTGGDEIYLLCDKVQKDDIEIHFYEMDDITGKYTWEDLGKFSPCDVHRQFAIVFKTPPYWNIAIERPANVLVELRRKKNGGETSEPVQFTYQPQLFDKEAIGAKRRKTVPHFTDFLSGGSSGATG
# GST-Co-NF-kB = target: T3, GST-Co-NF-kB (UniProt F1ARL5)
# T3 sequence: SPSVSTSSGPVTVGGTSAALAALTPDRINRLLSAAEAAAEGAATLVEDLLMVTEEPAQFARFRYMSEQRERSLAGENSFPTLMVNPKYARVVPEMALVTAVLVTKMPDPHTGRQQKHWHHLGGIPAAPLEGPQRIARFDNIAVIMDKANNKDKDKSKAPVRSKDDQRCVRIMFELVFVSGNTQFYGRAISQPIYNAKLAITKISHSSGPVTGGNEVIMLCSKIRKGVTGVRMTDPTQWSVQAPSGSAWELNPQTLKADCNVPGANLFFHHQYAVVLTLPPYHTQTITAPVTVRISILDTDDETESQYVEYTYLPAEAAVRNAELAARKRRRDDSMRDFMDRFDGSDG
# GST-Dm-Relish = target: T4, GST-Dm-Relish (UniProt Q94527)
# T4 sequence: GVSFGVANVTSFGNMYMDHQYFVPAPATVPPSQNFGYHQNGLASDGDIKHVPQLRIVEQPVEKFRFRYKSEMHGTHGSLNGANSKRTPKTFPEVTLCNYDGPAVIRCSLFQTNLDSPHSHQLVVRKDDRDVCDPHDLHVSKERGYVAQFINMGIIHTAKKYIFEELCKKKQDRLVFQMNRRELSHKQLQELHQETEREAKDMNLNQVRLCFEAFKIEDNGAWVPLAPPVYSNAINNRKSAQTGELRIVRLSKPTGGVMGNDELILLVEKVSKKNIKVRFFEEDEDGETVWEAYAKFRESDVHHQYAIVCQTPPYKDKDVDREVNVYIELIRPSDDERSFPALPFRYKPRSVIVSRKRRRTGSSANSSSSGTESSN
# GST-Aq-NF-kB = target: T5, GST-Aq-NF-kB (UniProt A9Y5G7)
# T5 sequence: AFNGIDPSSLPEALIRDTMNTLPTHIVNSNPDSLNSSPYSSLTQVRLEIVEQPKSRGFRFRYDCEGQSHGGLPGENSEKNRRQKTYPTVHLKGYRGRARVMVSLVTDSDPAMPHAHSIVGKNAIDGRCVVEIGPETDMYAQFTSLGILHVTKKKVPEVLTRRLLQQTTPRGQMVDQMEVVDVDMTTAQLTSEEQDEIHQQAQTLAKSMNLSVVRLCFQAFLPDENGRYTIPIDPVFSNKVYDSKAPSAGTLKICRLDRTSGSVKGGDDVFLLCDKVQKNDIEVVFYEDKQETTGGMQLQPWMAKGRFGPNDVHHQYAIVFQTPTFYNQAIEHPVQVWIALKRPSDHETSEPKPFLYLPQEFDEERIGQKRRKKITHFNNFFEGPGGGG
Sequence,binding signal (GST-Ap-NF-kB RHD),binding signal [1],binding signal (GST-Co-NF-kB),binding signal (GST-Dm-Relish),binding signal (GST-Aq-NF-kB)
CCGATTAACATCAGACCATTTCGTGATGTTAATCGGGTCTTGATTCGCTTGACGCTGCTG,0.445 z-score,-0.127 z-score,0.523 z-score,-0.299 z-score,0.0353 z-score
CCGATTAACATCAAAGTCCTGTTTGATGTTAATCGGGTCTTGATTCGCTTGACGCTGCTG,-0.442 z-score,-0.847 z-score,-1.26 z-score,-0.198 z-score,-0.382 z-score
CCGATTAACATCAATTTAGACGGTGATGTTAATCGGGTCTTGATTCGCTTGACGCTGCTG,0.342 z-score,0.00547 z-score,-0.287 z-score,0.00734 z-score,-0.107 z-score
CCGATTAACATCAATGATGTAATTGATGTTAATCGGGTCTTGATTCGCTTGACGCTGCTG,-0.923 z-score,-0.557 z-score,-0.904 z-score,0.191 z-score,-0.365 z-score
CCGATTAACATCACTGCTCAGGATGATGTTAATCGGGTCTTGATTCGCTTGACGCTGCTG,0.169 z-score,-1.08 z-score,-0.328 z-score,-1.14 z-score,-0.481 z-score
CCGATTAACATCAATAGCGCTCATGATGTTAATCGGGTCTTGATTCGCTTGACGCTGCTG,-0.113 z-score,-0.212 z-score,-0.91 z-score,-0.774 z-score,-0.126 z-score
CCGATTAACATCACTGGCTTCACTGATGTTAATCGGGTCTTGATTCGCTTGACGCTGCTG,-0.496 z-score,-1.05 z-score,-0.285 z-score,-0.235 z-score,-0.892 z-score
CCGATTAACATCATCAACTAATTTGATGTTAATCGGGTCTTGATTCGCTTGACGCTGCTG,-0.721 z-score,-0.784 z-score,-0.887 z-score,-0.467 z-score,-0.328 z-score
CCGATTAACATCAACGACACCACTGATGTTAATCGGGTCTTGATTCGCTTGACGCTGCTG,-0.164 z-score,-0.899 z-score,-0.606 z-score,-0.057 z-score,-0.415 z-score
CCGATTAACATCAGTGCGGTCTGTGATGTTAATCGGGTCTTGATTCGCTTGACGCTGCTG,-0.000285 z-score,-0.144 z-score,0.303 z-score,0.39 z-score,-0.15 z-score
CCGATTAACATCACAAACTAGCCTGATGTTAATCGGGTCTTGATTCGCTTGACGCTGCTG,0.61 z-score,-0.275 z-score,0.114 z-score,-0.24 z-score,-0.396 z-score
CCGATTAACATCAAAGCGTACTGTGATGTTAATCGGGTCTTGATTCGCTTGACGCTGCTG,-0.353 z-score,-1.21 z-score,-0.618 z-score,-0.558 z-score,-0.22 z-score
CCGATTAACATCAGGCCCACGTTTGATGTTAATCGGGTCTTGATTCGCTTGACGCTGCTG,0.2 z-score,-0.419 z-score,-0.795 z-score,-0.00771 z-score,0.151 z-score
CCGATTAACATCAACAGGTCCACTGATGTTAATCGGGTCTTGATTCGCTTGACGCTGCTG,0.241 z-score,-0.773 z-score,-0.351 z-score,-0.483 z-score,-0.372 z-score
CCGATTAACATCAAAATTCGTCATGATGTTAATCGGGTCTTGATTCGCTTGACGCTGCTG,-0.356 z-score,-0.14 z-score,-0.178 z-score,-0.41 z-score,-0.263 z-score
